In the supplement of paper PMC12217912:
This is one part of the list. The full chains were built here from the parent and the listed change. Values near 0.05 are background.

B1: TEV protease; numbered along this chain (parent)
chain: MGESLFKGPRDYNPISSSICHLTNESDGHTTSLYGIGFGPFIITNKHLFRRNNGTLVVQSLHGVFKVKDTTTLQQHLVDGRDMIIIRMPKDFPPFPQKLKFREPQREERICLVTTNFQTKSMSSMVSDTSCTFPSGDGIFWKHWIQTKDGQCGSPLVSTRDGFIVGIHSASNFTNTNNYFTSVPKNFMELLTNQEAQQWVSGWRLNADSVLWGGHKVFMVKPEEPFQPVKEATQL

Variants of: B1
Experiment: raw area under fraction-flipped curve 0-4 h after induction (AUC4h, not background-subtracted), DNA-recorder readout of cleavage of the substrate (dimensionless); higher = more cleavage of the substrate by the protease variant
Details: temperature: 34 °C; time window: 0-4 h after rhamnose induction
Method: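 In vivo DNA recorder in E. coli TOP10(DE3) ΔrhaA at 34 °C. Each TEVp single-site mutant (parent TEVp 0) is paired with a single-site variant of the 7-mer TEVs (canonical ENLYFQ|S). The substrate sits between flexible linkers in a Bxb1-sfGFP-TEVs-SsrA fusion, so cleavage stabilises Bxb1 and speeds flipping of a recombination array, read by NGS. The value is the raw area under the fraction-flipped curve over 0-4 h after rhamnose induction (AUC4h), with ≥20 reads per time point. It is not background-subtracted; inactive controls average about 0.047.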
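Also: Bxb1 expression induced with 0.2% (w/v) L-rhamnose at OD600 near 0.5, cultures sampled hourly, flipped fraction per protease–substrate barcode pair counted by paired-end Illumina sequencing.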

| Variant | area with substrate ENAYFQS | area with substrate ENCYFQS | area with substrate ENDYFQS | area with substrate ENEYFQS | area with substrate ENFYFQS | area with substrate ENKYFQS | area with substrate ENNYFQS | area with substrate ENPYFQS | area with substrate ENQYFQS | area with substrate ENRYFQS | area with substrate ENSYFQS | area with substrate ENVYFQS | area with substrate ENWYFQS | area with substrate ENGYFQS | area with substrate ENMYFQS | area with substrate ENTYFQS | area with substrate ENYYFQS | area with substrate ENHYFQS | area with substrate ENIYFQS |
| --- | --- | --- | --- | --- | --- | --- | --- | --- | --- | --- | --- | --- | --- | --- | --- | --- | --- | --- | --- |
| W212V | 0.067 | 0.0312 | 0.07 | 0.0607 | 0.057 | 0.0615 | 0.0753 | 0.0723 | 0.0609 | 0.0612 | 0.0654 | 0.0742 | 0.0571 |  |  |  |  |  |  |
| G214C | 0.0579 |  |  | 0.0535 | 0.0504 |  |  |  |  |  |  | 0.0803 |  | 0.0603 |  |  |  |  |  |
| G214S | 0.0537 |  | 0.0656 | 0.0559 | 0.0695 |  |  |  | 0.0573 |  | 0.114 | 0.0572 |  |  | 0.038 |  |  |  |  |
| H215A | 0.0691 |  | 0.0618 |  |  |  | 0.0696 | 0.234 | 0.0576 |  |  |  |  | 0.0502 |  | 0.0458 | 0.0577 |  |  |
| K216A | 0.0559 | 0.0766 |  |  |  | 0.0548 | 0.0574 |  | 0.0576 | 0.0237 |  |  |  | 0.0563 |  | 0.0643 | 0.0571 | 0.058 |  |
| K216C | 0.06 |  |  | 0.0685 | 0.0586 |  | 0.0643 |  |  |  | 0.0594 |  |  | 0.0448 |  |  |  | 0.0511 | 0.103 |
| K216N | 0.0581 |  | 0.0611 | 0.0617 | 0.0713 | 0.0628 |  | 0.0453 | 0.0515 | 0.0817 | 0.0577 | 0.0849 | 0.078 |  | 0.0604 | 0.061 |  | 0.0823 |  |
| K216P | 0.0555 |  | 0.0571 | 0.0591 |  |  |  |  |  |  |  | 0.0535 | 0.0587 | 0.0649 | 0.0919 | 0.0642 |  | 0.0433 |  |
| K216T | 0.0672 | 0.0707 | 0.0589 |  | 0.0657 |  | 0.0619 |  |  |  | 0.069 | 0.0862 |  | 0.0629 | 0.0736 |  |  |  |  |
| V217W | 0.0551 |  | 0.0577 |  | 0.0668 | 0.0644 | 0.0672 |  | 0.0624 | 0.0584 | 0.0572 | 0.0538 |  | 0.0628 | 0.0614 | 0.0571 | 0.0603 |  | 0.0504 |
| F218R | 0.0533 |  | 0.0577 | 0.0675 |  |  |  | 0.0611 |  |  | 0.0671 | 0.0578 |  |  |  | 0.0425 | 0.0574 |  |  |
| M219F | 0.0456 | 0.0749 | 0.0617 | 0.0558 | 0.0574 | 0.0572 |  |  | 0.0597 | 0.11 | 0.0553 | 0.0877 |  |  |  | 0.0754 |  |  | 0.119 |
| V220Q | 0.0926 | 0.0756 | 0.0678 | 0.0615 | 0.0616 | 0.0447 | 0.0604 | 0.06 | 0.0587 | 0.07 | 0.0649 | 0.0836 | 0.0413 | 0.0628 |  |  | 0.0606 | 0.0541 | 0.114 |
| K221E | 0.0649 | 0.0625 | 0.0594 | 0.0539 | 0.0591 | 0.0545 | 0.058 | 0.0554 | 0.133 | 0.0559 | 0.0644 | 0.0753 |  | 0.0608 |  | 0.0611 | 0.0211 | 0.0537 |  |
| P222W | 0.0624 | 0.0651 | 0.0336 | 0.0625 |  |  | 0.0566 | 0.0521 | 0.054 |  |  | 0.0624 |  | 0.0683 |  | 0.0609 | 0.0768 |  |  |
| E223L | 0.061 |  | 0.061 | 0.0588 | 0.0566 | 0.0643 | 0.0664 | 0.061 | 0.0565 | 0.0643 | 0.0575 | 0.07 |  | 0.0703 |  | 0.0671 |  | 0.0545 |  |
| E224D | 0.0586 | 0.0648 | 0.0543 | 0.0652 | 0.0541 |  | 0.0489 |  | 0.0609 | 0.0508 | 0.0643 | 0.102 |  | 0.0576 |  | 0.0598 |  | 0.0611 | 0.114 |
| E224Q | 0.0561 | 0.0709 | 0.0601 | 0.071 |  | 0.0629 | 0.0656 | 0.0765 | 0.058 | 0.0686 | 0.0571 | 0.0817 |  | 0.0611 | 0.0687 | 0.0701 |  |  | 0.11 |
| F226D | 0.0572 |  | 0.0287 | 0.0636 | 0.0602 |  |  | 0.0417 | 0.0357 |  |  |  |  | 0.0687 |  |  |  |  | 0.112 |
| P228F | 0.0749 | 0.063 | 0.0623 | 0.0602 |  |  |  |  | 0.074 | 0.0622 | 0.0689 | 0.0571 |  |  |  |  |  |  | 0.0765 |
| E231W | 0.0623 | 0.0636 | 0.0579 | 0.0742 | 0.0547 | 0.0486 | 0.0467 |  | 0.0575 | 0.0634 | 0.0625 | 0.0645 | 0.0471 | 0.0663 | 0.0629 | 0.0673 |  | 0.0632 | 0.103 |
| A232Q | 0.0616 |  | 0.0675 | 0.0581 |  | 0.0555 | 0.0673 | 0.0238 |  | 0.0676 | 0.0535 | 0.0828 |  | 0.0558 | 0.0903 | 0 | 0.0595 | 0.0395 | 0.108 |
| A232R | 0.0688 |  | 0.0554 | 0.0627 | 0.0608 | 0.0588 | 0.0485 |  | 0.0606 | 0.0582 | 0.0569 | 0.0721 |  | 0.0634 | 0.0703 | 0.0654 | 0.0691 | 0.0609 |  |
| A232Y | 0.0637 | 0.0759 | 0.0664 | 0.0673 | 0.0596 |  | 0.0608 |  | 0.0589 | 0.0583 | 0.0659 | 0.0642 |  | 0.069 |  | 0.0645 |  |  | 0.0948 |
| Q234G | 0.0428 | 0.0648 | 0.0717 | 0.0647 |  | 0.0598 | 0.0594 |  | 0.0596 |  | 0.0658 | 0.118 | 0.086 | 0.0665 |  | 0.0727 |  | 0.0622 |  |
| L235H | 0.0537 |  | 0.0656 | 0.038 | 0.0678 |  | 0.0572 |  | 0.0624 |  | 0.064 |  | 0.0546 |  |  |  |  |  |  |
| L5M |  | 0.0627 | 0.0622 | 0.071 | 0.0572 | 0.0612 | 0.0746 | 0.0696 | 0.0615 | 0.0775 | 0.0546 | 0.0928 |  | 0.0687 |  | 0.0668 |  | 0.0465 | 0.128 |
| L5R |  | 0.0516 | 0.0463 |  | 0.0591 | 0.0331 |  | 0.0493 |  |  | 0.0709 |  |  |  |  |  | 0.0623 |  |  |
| G8N |  | 0.0455 | 0.0561 |  | 0.0632 |  |  | 0.0603 |  | 0.0552 |  |  |  |  |  |  |  |  |  |
| L22G |  | 0.0517 | 0.0543 | 0.0455 |  |  |  | 0.0398 |  | 0.0357 | 0.0512 | 0.0412 | 0.0448 |  |  |  |  | 0.0295 |  |
